Reference: PubChem BioAssay AID1346428 (National Center for Advancing Translational Sciences (NCATS), 2018)
Hit rate of the full screen: of about 48,000 compounds, about 1,200 (2.5%) were called active. Roughly 2% stayed inconclusive and do not appear here.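 How the source made its calls: active means activation of at least 60% and not above a set upper limit (about 1 call in 100 departs from these limits); inconclusive means activation of 40% to 60%, or above that upper limit; inactive means activation under 40%.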 This is one part of the list.
Further: 0% is about no effect.

These molecules were tested against Probable G-protein coupled receptor 32 (Homo sapiens) (UniProt O75388) (assay: qHTS for Agonists of Human Resolvin D1 Receptor DRV1). Details: CHO-K1 GPR32 beta-arrestin PathHunter luminescence, 90 min; at 76.9 µM; stronger effect = higher value; zero percent set by DMSO-only wells.
UniProt O75388, sequence (O75388 whole entry, looked up, the tested form may be a part): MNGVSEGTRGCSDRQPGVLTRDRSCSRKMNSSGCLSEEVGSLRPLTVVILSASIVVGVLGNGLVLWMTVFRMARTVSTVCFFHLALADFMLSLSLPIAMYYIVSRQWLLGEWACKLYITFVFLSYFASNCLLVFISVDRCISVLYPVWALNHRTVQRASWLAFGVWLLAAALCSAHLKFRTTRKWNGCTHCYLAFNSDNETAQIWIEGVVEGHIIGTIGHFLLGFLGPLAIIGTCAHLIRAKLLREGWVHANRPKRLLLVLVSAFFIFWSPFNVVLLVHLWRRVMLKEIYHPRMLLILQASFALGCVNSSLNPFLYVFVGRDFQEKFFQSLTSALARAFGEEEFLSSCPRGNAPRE
In short: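 GPR32 activation in stably transfected CHO-K1 cells, detected as beta-arrestin recruitment by enzyme-fragment complementation. Compound exposure: 90 min, 37 °C.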
In the case of `O=C(CCS(=O)(=O)c1nc(-c2cccs2)cc(C(F)(F)F)n1)Nc1ccc(F)c(Cl)c1`, the activation was inactive: -35.9%.
In the case of `Cc1c(Cl)cccc1-n1ncc(C(=O)N2CCC(C)CC2)c1C1CCN(C(=O)OC(C)(C)C)CC1`, the activation was inactive: -5.45%.
In the case of `Cc1cc(C)nc(NS(=O)(=O)c2ccc(NC(=O)c3nc(SC(C)C)ncc3Cl)cc2)n1`, the activation was inactive: -2.99%.
For `CC(=O)c1ccc(N2CCN(C(=O)c3cc4c(s3)-c3ccccc3OC4)CC2)cc1`, the activation was inactive: 17.5%.
For `CC(C)C(NS(=O)(=O)c1ccc2c(c1)oc(=O)n2C)C(=O)NCc1ccccc1` (configuration not stated), the activation was inactive: -0.244%.
For `COc1ccc(NC(=O)CSc2nc(-c3ccccc3)[nH]c2-c2ccccc2)cc1OC`, the activation was inactive: 10.8%.
In the case of `CN(C(=O)C1CCN(c2ncnc3c2nc2n3CCCCC2)CC1)c1ccccc1F`, the activation was inactive: -2.77%.
For `CCN(CC)c1ccc(NC(=O)CN2CCN(S(=O)(=O)c3cc(Cl)ccc3OC)CC2)cc1`, the activation was inactive: 4.6%.
With `Cc1oc(-c2ccc(C(=O)NCc3ccccc3F)cc2)nc1COc1ccccc1` the activation was inactive: -8.97%.
For `COc1cccc(NC(=O)Cn2nnc(C(=O)NCCc3ccccc3)c2N)c1`, the activation was inactive: -13.3%.
For `Cn1cnc2c(=O)oc3ccc(S(=O)(=O)N4CCN(c5ccccc5F)CC4)cc3c21`, the activation was inactive: -1.5%.
In the case of `O=C(Nc1cccc(C(=O)OCc2cc(=O)n3c4c(sc3n2)CCCC4)c1)c1cccc(Cl)c1`, the activation was inactive: -11.1%.
`COc1ccc(CCn2c(=O)c3cccnc3n(CC(=O)Nc3ccc(C)cc3C)c2=O)cc1OC` was tested, and the activation was inactive: -20.9%.
In the case of `Cn1cc(C(=O)Nc2ccc(C#N)cc2)c2ccccc2c1=O`, the activation was inactive: -30.4%.
In the case of `Cc1nc(-c2ccc(S(=O)(=O)N(Cc3ccccc3)C(C)C)cc2)co1`, the activation was inactive: -9.4%.
`CC(C)OCCCNC(=O)CCCn1c(SCC(N)=O)nc2c(sc3ccccc32)c1=O` was tested, and the activation was inactive: -19.4%.
In the case of `CCOc1ccc(CCNC(=O)c2ccc3c(c2)nc2n3CCOC2)cc1OCC`, the activation was inactive: -0.348%.
`O=C(CSc1nc2c([nH]c3ccccc32)c(=O)n1-c1ccc(F)cc1)NCc1ccc(F)cc1` was tested, and the activation was inactive: -13.2%.
With `Cc1ccc(Cl)cc1NC(=O)C1CCN(C(=O)c2cnn(-c3ccccc3)c2-n2cccc2)CC1` the activation was inactive: 17.4%.
With `Cc1oc(-c2ccccc2Cl)nc1CS(=O)CC(=O)NCc1ccccc1Cl` (configuration not stated) the activation was inactive: -12.4%.
`COc1ccc(NC(=O)CN2CCN(CC(=O)Nc3ccccc3F)CC2)cc1OC` was tested, and the activation was inactive: -2.76%.
`O=S(=O)(c1ccc(F)cc1)N(Cc1nc(-c2ccccc2)no1)C1CCCCC1` was tested, and the activation was inactive: -28%.
For `CCOC(=O)c1ccc(NC(=O)COc2cccc3c(=O)n(C)ccc23)cc1`, the activation was active: 68.7%.
With `Cc1ccc(CN(Cc2cccn2-c2nnc(N3CCCC3=O)s2)C(=O)Nc2ccc(F)cc2)cc1` the activation was inactive: -11.5%.
In the case of `O=C(COc1ccc(F)cc1)Nc1ccc(C(=O)OCc2cc(=O)n3nc(C4CC4)sc3n2)cc1`, the activation was inactive: 2.38%.
In the case of `CCOc1ccc(NC(=O)N2CCC(c3ccc(C)cc3)C2)cc1` (configuration not stated), the activation was inactive: -3.44%.
For `Cc1cc(Cl)ccc1OCC(=O)N1CCC(c2nc3ccccc3o2)CC1`, the activation was inactive: 13.1%.
In the case of `CO/N=C(\C(=O)N[C@@H]1C(=O)N2C(C(=O)O)=C(COC(C)=O)CS[C@H]12)c1csc(N)n1`, the activation was inactive: -1.75%.
`COC(=O)c1ccc(NC(=O)C(=O)NCCc2csc(-c3ccc(C(F)(F)F)cc3)n2)cc1` was tested, and the activation was inactive: 0.839%.
In the case of `COc1ccccc1CNC(=O)CSCc1nc(-c2ccc(OC)c(OC)c2)oc1C`, the activation was inactive: -7.03%.
`Cc1ccc(-n2nc(C(=O)Nc3ccc(Br)cc3C)c(=O)n(C)c2=O)cc1` was tested, and the activation was inactive: 4.81%.
With `CCOc1ccc(NC(=O)c2sc3nc4c(cc3c2N)CN(Cc2ccccc2)CC4)cc1` the activation was inactive: 5.61%.
In the case of `CCCn1c2ccccc2c2cnn(CC(=O)NCc3ccc(OC)cc3)c(=O)c21`, the activation was inactive: -7.64%.
`COc1ccc(OC)c(NC(=O)CCn2cccn2)c1` was tested, and the activation was inactive: 2.5%.
In the case of `Cc1ccc(Cn2ccnc2SCC(=O)Nc2ccccc2C(F)(F)F)cc1`, the activation was inactive: -16.7%.
`COc1ccccc1CNC(=O)C1CCN(S(=O)(=O)c2ccc3[nH]c(=O)ccc3c2)CC1` was tested, and the activation was inactive: -0.274%.
With `CCOC(=O)c1ccccc1NC(=O)NCc1cccn1Cc1ccc(F)cc1` the activation was inactive: -25.9%.
With `Cc1ccccc1Cn1nc(C)c(NC(=O)c2cc(CC(C)C)on2)c1C` the activation was active: 63.8%.
`COc1cc(OC)c(NC(=O)Cn2c(SCc3ccccc3F)nc3cccnc32)cc1Cl` was tested, and the activation was inactive: -5.03%.
`O=C1CC(c2cccc(Cl)c2Cl)c2cc3c(cc2N1)OCCO3` (configuration not stated) was tested, and the activation was inactive: 15.1%.
In the case of `Cc1ccccc1N=Nc1ccc(N=Nc2c(O)ccc3ccccc23)c(C)c1`, the activation was inactive: 7.05%.
`CCOc1ccc(NC(=O)Cn2c(=O)n(Cc3ccco3)c(=O)c3ccc(C(=O)NC4CCCC4)cc32)cc1` was tested, and the activation was inactive: -5.99%.
`CCc1nn(CC(=O)N2CCN(c3cccc(Cl)c3)CC2)c(=O)c2cc3sccc3n12` was tested, and the activation was inactive: -10.8%.
In the case of `CC(=O)c1ccc(N2CCN(c3nc4ccccc4c4nc(-c5cccc(C)c5)nn34)CC2)cc1`, the activation was inactive: -11.3%.
With `CCOc1ccc(NC(=O)Cn2nc(SC)c(S(=O)(=O)c3ccccc3)c2N)cc1` the activation was inactive: 38.2%.
With `CC(NC(=O)c1cc2ccccc2o1)c1ccccc1` (configuration not stated) the activation was inactive: 23.5%.
`CCC(=O)N1CCc2cc(CNC(=O)c3ccc(C#N)cc3)ccc21` was tested, and the activation was inactive: -14.3%.
In the case of `COc1cc(OC)cc(C(=O)Nc2ccc3c(c2)OCCO3)c1`, the activation was inactive: -8.26%.
With `O=C(CNC(=O)c1ccccc1F)OCc1cc(=O)n2nc(C3CC3)sc2n1` the activation was inactive: 3.99%.
For `CCOc1ccccc1Nc1nnc(-c2cc3cc(Cl)ccc3oc2=O)s1`, the activation was inactive: -4.35%.
With `CCCn1nc(NC(=O)c2cccc(Cl)c2)c2cc3cccc(C)c3nc21` the activation was inactive: -0.271%.
With `COc1ccc(-c2nc3sc(CCNC(=O)C(=O)Nc4ccc(C)c(F)c4)c(C)n3n2)cc1` the activation was inactive: -5.36%.
In the case of `CCOc1ccc(NC(=O)CSC2=Nc3ccccc3C3=NC(Cc4ccccc4)C(=O)N23)cc1` (configuration not stated), the activation was inactive: -4.9%.
In the case of `Cc1ccc(NC(=O)Cn2c(-c3nonc3N)nc3ccccc32)cc1C`, the activation was inactive: -36.7%.
In the case of `COc1ccccc1CN1CCN(C2CCN(C(=O)Nc3ccccc3)CC2)C(=O)C1=O`, the activation was inactive: -5.55%.
For `CCc1ccc(S(=O)(=O)c2cn(C)c3cc(F)c(F)cc3c2=O)cc1`, the activation was inactive: 4.2%.
`Cc1ccccc1NC(=O)CCNC(=O)Cn1ccc2ccccc2c1=O` was tested, and the activation was inactive: -3.38%.
`CC(C)(C)C(=O)Nc1cccc(C(=O)OCc2cc(=O)n3nc(C4CC4)sc3n2)c1` was tested, and the activation was inactive: 8.03%.
In the case of `CC(Nc1ccc(-c2nc(-c3ccco3)no2)cc1[N+](=O)[O-])c1ccccc1` (configuration not stated), the activation was inactive: -14.5%.
With `CCS(=O)(=O)c1oc(-c2ccc(F)cc2)nc1S(=O)(=O)c1ccc(Br)cc1` the activation was inactive: -6.37%.
In the case of `COc1ccccc1N1CCN(S(=O)(=O)CCNC(=O)C2CC(=O)N(c3ccccc3)C2)CC1` (configuration not stated), the activation was inactive: -1.38%.
In the case of `COc1cc(NC(=O)c2cc3ccc4cccnc4c3[nH]2)cc(OC)c1OC`, the activation was inactive: -6.07%.
`CCOC(=O)c1ccc(NC(=O)CC2C(=O)N(c3ccc(C)cc3)C(=O)N2C2CCCC2)cc1` (configuration not stated) was tested, and the activation was inactive: -30.9%.
`CCOC(=O)N1CCc2c(sc(NCc3sccc3C)c2C(=O)Nc2cc(Cl)ccc2OC)C1` was tested, and the activation was inactive: -3.69%.
With `CCS(=O)(=O)c1nc(S(=O)(=O)c2ccc(C)cc2)c(NCC(C)C)s1` the activation was inactive: -18.6%.
In the case of `COC(=O)CN1C(=O)CSc2ccc(S(=O)(=O)Nc3c(C)cc(C)cc3C)cc21`, the activation was inactive: -12.3%.
With `CCOC(=O)c1ccc(NC(=O)CSc2nc(-c3cccs3)cc(C(F)(F)F)c2C#N)cc1` the activation was inactive: -11.1%.
In the case of `Cc1ccc(NC(=O)N2CCN(Cc3nc4ccc(C)cc4o3)CC2)c(Cl)c1`, the activation was inactive: 3.49%.
In the case of `CC(=O)C1=C(c2ccc(Cl)c(Cl)c2)N(C(C)=O)n2cnnc2S1`, the activation was inactive: 2.38%.
In the case of `O=C1CN(C(=O)COc2ccc(Cl)cc2)C(c2ccc(F)cc2)c2cc(Br)ccc2N1` (configuration not stated), the activation was inactive: -26.8%.
`COC(=O)c1c(SCC(=O)Nc2cccc(Cl)c2C)[nH]c2ccccc2c1=O` was tested, and the activation was inactive: -16.7%.
With `CN(C(=O)c1c2c(nc3ccccc13)C(=O)N(C1CCCCC1)C2)c1ccc(F)cc1` the activation was inactive: -10.4%.
In the case of `Cc1ccc(S(=O)(=O)NCCc2csc3nc(-c4ccccc4F)nn23)cc1C`, the activation was active: 105%.
In the case of `Cc1ccc(C)c(N2CCN(c3nc4ccc(Cl)cc4n4cnnc34)CC2)c1`, the activation was inactive: -5.84%.
For `CCOC(=O)c1c(C)oc2ncnc(N3CCN(c4ccccc4)CC3)c12`, the activation was inactive: -32.5%.
For `CC(NC(=O)C1CCN(S(=O)(=O)c2ccc3c(c2)oc(=O)n3C)CC1)c1ccccc1` (configuration not stated), the activation was inactive: -0.365%.
`O=[N+]([O-])c1ccc(S(=O)(=O)N2CCn3cccc3C2c2ccccc2F)cc1` (configuration not stated) was tested, and the activation was inactive: 6.22%.
With `CC(C)(C)OC(=O)N1CCC(c2c(C(=O)N3CCC(c4ccccc4)C3)cnn2-c2ccc(Cl)cc2)CC1` (configuration not stated) the activation was inactive: -11.7%.
`COc1cccc(-c2nc(SCc3ccc(C)cc3)n3[nH]c(=O)cc3n2)c1` was tested, and the activation was inactive: -7.98%.
For `COc1ccccc1-c1nc(S(=O)(=O)c2ccccc2)c(N2CCC(C)CC2)o1`, the activation was inactive: 4.09%.
In the case of `Cc1ccccc1OCc1nnc(SCc2cc(=O)c3ccc(C)c(C)c3[nH]2)n1C`, the activation was inactive: 33.3%.
For `Cc1ccc(-c2cc3c(n2-c2ccc(F)cc2)CC(C)(C)CC3=O)cc1`, the activation was inactive: -11%.
